Results published in PubChem BioAssay AID1030 (National Center for Advancing Translational Sciences (NCATS), 2008).
About 16,000 (7.3%) of roughly 220,000 compounds were called active. The shares of active, inactive and inconclusive entries below differ from those in the screen. Calls follow the shape of the dose curve; as a rule, active = well fitted inhibition curve with a large enough effect (not every such curve was filed as active); inconclusive = small, poorly fitted or top-dose-only effect, or another doubt; inactive = no such curve, though single readings can be large or run the other way. Potencies of inconclusive entries are doubtful fits and often do not repeat.

target: Aldehyde dehydrogenase 1A1 (Homo sapiens) (UniProt P00352); experiment: qHTS Assay for Inhibitors of Aldehyde Dehydrogenase 1 (ALDH1A1); conditions: Purified ALDH1A1, NADH fluorescence, propionaldehyde substrate; series mostly up to 75.3 µM; activity, negative = inhibition: at the top concentration;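 as to activity, negative = inhibition: plate controls were no enzyme wells and a reference inhibitor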
Chain of UniProt P00352 (P00352 whole entry, looked up): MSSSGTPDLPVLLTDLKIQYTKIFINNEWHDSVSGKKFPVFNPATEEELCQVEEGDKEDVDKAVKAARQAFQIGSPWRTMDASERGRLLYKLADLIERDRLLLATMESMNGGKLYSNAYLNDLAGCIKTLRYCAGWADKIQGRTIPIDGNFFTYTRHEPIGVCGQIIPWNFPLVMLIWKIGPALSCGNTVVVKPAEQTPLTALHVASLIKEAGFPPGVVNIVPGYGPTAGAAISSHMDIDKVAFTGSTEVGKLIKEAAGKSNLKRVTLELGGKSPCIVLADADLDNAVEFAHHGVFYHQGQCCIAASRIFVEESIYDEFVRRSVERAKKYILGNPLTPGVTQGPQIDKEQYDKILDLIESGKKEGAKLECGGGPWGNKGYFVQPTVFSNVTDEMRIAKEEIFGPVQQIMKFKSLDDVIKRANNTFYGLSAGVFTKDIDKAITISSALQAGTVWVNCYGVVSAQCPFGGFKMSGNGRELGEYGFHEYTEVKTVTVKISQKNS
Potency is read from the fitted curve at half-maximal effect; tags tell the direction and shape of the fitted curve.

Potency, inactive:
CC(Nc1oc(-c2ccccc2)nc1-c1ccccc1)c1ccccc1 (stereo not drawn)

Potency, inconclusive:
CC(C)(C)c1ccc(S(=O)(=O)N2CCC(c3nc4ccc(Cl)cc4[nH]3)CC2)cc1 12.6 µM [inhibitor, partial curve], CSC1=NCCN1C(=O)C12CC3CC(CC(C3)C1)C2 39.8 µM [inhibitor, single point], Cc1ccc(S(=O)(=O)N(C)C)cc1NC(=O)c1sccc1Cl 25.1 µM [inhibitor, partial curve], CCCn1c(/N=C/c2c[nH]c3ccccc23)nc2ccccc21 44.7 µM [inhibitor, single point], O=C(O)c1cc(N2C(=O)C3C4C=CC(C4)C3C2=O)ccc1NCc1cccnc1 (stereo not drawn) 39.8 µM [inhibitor, single point], Cc1cc(C(=O)O)sc1C 25.1 µM [inhibitor, partial curve], O=S(=O)(Nc1nc2ccccc2nc1N1CCN(c2ccccc2F)CC1)c1ccc(Cl)cc1 35.5 µM [inhibitor, single point], Clc1ccc(CSc2nnc(NC3=NCCCCC3)s2)cc1 15.8 µM [inhibitor, partial curve], CCOc1ccc(OCc2ccc(C(=O)N3CCCC(C)C3)cc2)cc1 (stereo not drawn) 15.8 µM [inhibitor, partial curve], CCOC(=O)C1=C(C)NC2=C(C(=O)C(C(=O)OCC)C(c3ccco3)C2)C1c1ccccn1 (stereo not drawn) 25.1 µM [inhibitor, partial curve], Cc1ccc(S(=O)(=O)N(CC(=O)Nc2ccccc2C(=O)O)c2cccc(Cl)c2C)cc1 31.6 µM [inhibitor, single point], CCOC(=O)c1ccc(Nc2nc(C)cc(C)c2C#N)cc1 17.8 µM [inhibitor, partial curve], CCCC(=O)c1ccc(N2CCN(C(=O)c3ccc(Br)cc3)CC2)c(F)c1 25.1 µM [inhibitor, single point], Cc1ccc(-c2nn(-c3ccccc3)cc2CN(Cc2ccccc2)C(=O)CCC(=O)O)o1 25.1 µM [inhibitor, partial curve], Cc1noc(C)c1C(=O)OCC(=O)C12CC3CC(CC(C3)C1)C2 2 µM [inhibitor, partial curve], O=C1NC2(CCC3(CC2)OCCO3)NN1c1ccc(Cl)cc1 39.8 µM [inhibitor, single point], CCCC12CN3CC(C)(CN(C1)C31C(=O)Nc3ccc(C)cc31)C2=O (stereo not drawn) 15.8 µM [inhibitor, partial curve], CCOc1ccc(/C=N/NC(=O)c2cc(-c3ccco3)nc3ccccc23)cc1 23.8 µM [inhibitor, partial curve], Cc1ccc(NC(=O)CSc2nc(C)c(Cc3ccccc3)c(=O)[nH]2)cc1 12.6 µM [inhibitor, partial curve], CC1=C(C)C[C@@]23CCCN2C(=O)CCC[C@H]3C1 39.8 µM [inhibitor, single point], CN(C)c1ccc(-c2nn3c(C4CCCCC4)nnc3s2)cc1 22.4 µM [inhibitor, partial curve], CC(C(=O)OCc1nnc(-c2ccccc2)o1)N1C(=O)C2CCCCC2C1=O (stereo not drawn) 39.8 µM [inhibitor, single point], O=C(COc1ccc2c3c(c(=O)oc2c1)CCC3)NC1CCCCC1 31.6 µM [inhibitor, partial curve], C=CCSc1nnc(-c2ccncc2)n1-c1ccc(OCC)cc1 39.8 µM [inhibitor, single point], CC(C)Cc1nc(N2CCOCC2)c(C#N)c2c1COC(C)(C)C2 31.6 µM [inhibitor, single point], Cc1ccc(S(=O)(=O)n2cc(-c3ccccc3)c(N)n2)cc1 39.8 µM [inhibitor, single point], Cc1ccc(S(=O)(=O)Nc2ccc3c(c2)nc2n3CCN(Cc3ccccc3)C2)cc1 39.8 µM [inhibitor, single point], Cc1ccc(SCCNC(=O)c2cccc([N+](=O)[O-])c2C)cc1 17.8 µM [inhibitor, partial curve]

Potency, active:
CC(C)c1ccccc1OCCCCCNCCO 17.8 µM, CC(C)c1ccc(CN2CCN(C(=O)CCl)CC2)cc1 0.562 µM, COC(=O)C1=C(C)N=C2SC(C#N)=C(N)N2C1c1cccc(OC)c1 (stereo not drawn) 12.6 µM, Cc1nc(NCCc2ccccc2F)c(C#N)c(C)c1[N+](=O)[O-] 14.1 µM, Nc1nnnn1/N=C/c1ccc(N2CCCCC2)c([N+](=O)[O-])c1 0.0708 µM

activity, negative = inhibition, inactive:
C=CCC(C)(NCc1ccccc1)c1ccccc1 (stereo not drawn) 7.05%, CCN[C@@H]1CN(CCCOC)S(=O)(=O)c2sc(S(N)(=O)=O)cc21 -8.22% [at 20.9 µM], C[C@H](NC(=O)CNC(=O)[C@@H](NC(=O)[C@H](Cc1ccccc1)NC(=O)CNC(=O)CNC(=O)[C@@H](N)Cc1ccccc1)[C@@H](C)O)C(=O)N[C@@H](CCCN=C(N)N)C(=O)N[C@@H](CCCCN)C(=O)N[C@@H](CO)C(=O)N[C@@H](C)C(=O)N[C@@H](CCCN=C(N)N)C(=O)N[C@H](CN)CCCCN 6.51%, Cc1cc(C)nc(/N=C(\N)Nc2ccc(S(=O)(=O)Nc3nccc(C)n3)cc2)n1 5.31%, Cn1c(=O)c(-c2cccs2)nc2cnc(N3CCOCC3)nc21 2.58%, CCC(C)[C@H](NC(=O)Nc1cccc(OC)c1)C(=O)OC (stereo partly drawn) 0.129%, Cc1[nH]c2c(ccc3ccccc32)c1C1C(CCN)C1(C)C (stereo not drawn) -9.28%, NS(=O)(=O)c1ccc(Nc2nc(-c3ccc(O)cc3O)cs2)cc1 -3.51%, CN(C)c1nc(SCCOC(=O)COc2ccc(Cl)cc2Cl)nc(N(C)C)n1 5.45%
